The list shows a part of the results. Values were computed here from the reads of four pooled replicates and scatter widely.
target: T1, Pho4 (S. cerevisiae) (UniProt P07270); assay: relative binding free energy (BET-seq); higher = weaker binding; settings: reference: library average
T1 sequence: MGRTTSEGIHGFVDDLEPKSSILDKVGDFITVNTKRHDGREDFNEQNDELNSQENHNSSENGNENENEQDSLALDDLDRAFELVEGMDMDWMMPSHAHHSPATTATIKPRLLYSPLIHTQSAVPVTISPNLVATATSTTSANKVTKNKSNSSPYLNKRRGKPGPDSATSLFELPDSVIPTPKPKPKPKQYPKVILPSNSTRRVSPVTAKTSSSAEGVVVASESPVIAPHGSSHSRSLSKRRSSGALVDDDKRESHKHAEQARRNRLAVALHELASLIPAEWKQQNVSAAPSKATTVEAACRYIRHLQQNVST

Sequence | relative binding free energy
TGAGACACGTGGGTTC | 0.02 kcal/mol
GGTGGCACGTGAAATA | 0.26 kcal/mol
GTTTCCACGTGTGATG | 0.38 kcal/mol
GGTTTCACGTGTCCTT | 0.27 kcal/mol
TGTTCCACGTGGCGTG | -0.01 kcal/mol
TTTTACACGTGGAGCG | 0.08 kcal/mol
TTAAGCACGTGGAATG | -0.05 kcal/mol
CGGCGCACGTGAGGTT | 0.1 kcal/mol
GTGTCCACGTGTAGGG | 0.09 kcal/mol
TTCGGCACGTGTTGGA | 0 kcal/mol
TTTGGCACGTGAGCTG | 0.15 kcal/mol
ACTGGCACGTGAGGTT | 0.23 kcal/mol
GAATTCACGTGGGCAG | 0.4 kcal/mol
TAGCACACGTGGGGGA | -0.2 kcal/mol
TTATGCACGTGGATCG | 0.01 kcal/mol
AGGCTCACGTGTCGGT | 0.25 kcal/mol
TAGTTCACGTGTAGCA | 0.37 kcal/mol
GGTGGCACGTGCTAGC | -0.09 kcal/mol
TGCAGCACGTGCGGGA | -0.1 kcal/mol
TGTAGCACGTGTATTG | -0.15 kcal/mol
GTAGGCACGTGGCTAA | -0.1 kcal/mol
GGCTGCACGTGCTGTG | 0.06 kcal/mol
CATTACACGTGGGGTG | -0.01 kcal/mol
GTTGGCACGTGTGAGT | 0.07 kcal/mol
AAGGGCACGTGGAGGG | -0.25 kcal/mol
TGGAACACGTGTAATG | 0.07 kcal/mol

Sequence | relative binding free energy
TTGGACACGTGGTGTC | 0.02 kcal/mol
TAAGCCACGTGATTTT | 0.2 kcal/mol
AAGGCCACGTGGTTGA | -0.1 kcal/mol
CGGTTCACGTGTTTGG | 0.24 kcal/mol
AAGTACACGTGGGGGA | 0.01 kcal/mol
GGTGGCACGTGCGGGC | 0.05 kcal/mol
ATAGGCACGTGAGCTG | 0.16 kcal/mol
TGGTTCACGTGTGGTG | 0.35 kcal/mol
GGTTGCACGTGTCTTA | 0.15 kcal/mol
CGAGGCACGTGGTGGT | -0.15 kcal/mol
CGAAACACGTGAGGGG | 0.22 kcal/mol
CGGGACACGTGGGTTT | -0.06 kcal/mol
GTTTGCACGTGATGCG | 0.06 kcal/mol
TGGCACACGTGTATGT | 0.07 kcal/mol
TCGTGCACGTGTTGTG | 0.03 kcal/mol
CGGGGCACGTGGTTCT | -0.22 kcal/mol
CTACGCACGTGGTGGT | -0.3 kcal/mol
GTGCTCACGTGTGATT | 0.14 kcal/mol
GGACGCACGTGTCGGG | -0.12 kcal/mol
GGAGACACGTGTGTAG | 0.01 kcal/mol
TGGCGCACGTGTGTTA | 0.05 kcal/mol
TATTGCACGTGCAGTT | 0.02 kcal/mol
TCGGGCACGTGTGCGT | -0.06 kcal/mol
ATGGGCACGTGAGCGA | -0.05 kcal/mol
TCTGTCACGTGTAGGC | 0.06 kcal/mol
GATTACACGTGGGAGG | 0.17 kcal/mol

Sequence | relative binding free energy
AGGAGCACGTGCTTGT | -0.15 kcal/mol
GTTATCACGTGGTAAG | 0.14 kcal/mol
TTGATCACGTGTTGAG | 0.15 kcal/mol
GTTGGCACGTGGTTGG | -0.01 kcal/mol
GCATACACGTGAAGGT | 0.48 kcal/mol
GTTGTCACGTGAATGC | 0.21 kcal/mol
GCTGTCACGTGTCTGG | 0.21 kcal/mol
ACTTTCACGTGGGTGG | 0.15 kcal/mol
GGAACCACGTGGTTGG | -0.09 kcal/mol
GGGTGCACGTGCTTCA | 0.13 kcal/mol
GGGCTCACGTGAGTGC | 0.41 kcal/mol
AGGCTCACGTGGGTCG | -0.04 kcal/mol
TAATACACGTGTCGGT | 0.1 kcal/mol
GTTGACACGTGCGGGA | -0.04 kcal/mol
TTGTCCACGTGGAGTG | -0.02 kcal/mol
GTACGCACGTGATGTT | 0 kcal/mol
AGTGACACGTGTGTTA | 0.15 kcal/mol
TAAGTCACGTGGTGTG | 0.03 kcal/mol
TGCGGCACGTGGGCTG | -0.28 kcal/mol
GGTCGCACGTGGAGGG | -0.03 kcal/mol
TATGTCACGTGGTCAT | 0 kcal/mol
TATTGCACGTGATGGC | 0.12 kcal/mol
TAGCTCACGTGTGGAT | 0.17 kcal/mol
TGGACCACGTGTTTAT | -0.08 kcal/mol
TAAGACACGTGGTGTA | -0.09 kcal/mol
TCTAACACGTGTGGGA | 0.13 kcal/mol

Sequence | relative binding free energy
TTTAACACGTGGTCGT | 0.01 kcal/mol
TTGCGCACGTGAGGAG | 0.08 kcal/mol
TTCGTCACGTGGTGCG | -0.05 kcal/mol
GGCTGCACGTGTTGAG | 0.2 kcal/mol
TAGAGCACGTGAGTGA | -0.01 kcal/mol
TGTTGCACGTGGGCGA | -0.18 kcal/mol
GGTCCCACGTGGTAGG | -0.04 kcal/mol
ATTTGCACGTGTAAGC | 0.11 kcal/mol
TCGTGCACGTGTGCGG | -0.01 kcal/mol
TCATGCACGTGGGGGT | -0.24 kcal/mol
GTGTGCACGTGAGCGA | 0.08 kcal/mol
TGTCTCACGTGGTATT | 0.14 kcal/mol
GGTTGCACGTGTACAG | 0 kcal/mol
AGGAGCACGTGTGATA | -0.01 kcal/mol
GGGTTCACGTGAGCTG | 0.45 kcal/mol
TTCTTCACGTGTGTAA | 0.34 kcal/mol
TGTTTCACGTGGTACT | 0.15 kcal/mol
TAATCCACGTGTTGGG | 0.01 kcal/mol
TTATTCACGTGCAGGA | 0.26 kcal/mol
CTGGGCACGTGGGGGT | -0.24 kcal/mol
AGGTTCACGTGATACG | 0.26 kcal/mol
GAGGCCACGTGGGAGT | 0.04 kcal/mol
TGCTCCACGTGTGGGT | -0.06 kcal/mol
GGTGACACGTGAGTGA | 0.19 kcal/mol
GTATACACGTGTGGTC | 0.07 kcal/mol
GGCTTCACGTGTGGCT | 0.21 kcal/mol

Sequence | relative binding free energy
CGGGTCACGTGTATGT | 0.13 kcal/mol
TGGGGCACGTGCACGA | -0.11 kcal/mol
TTGGCCACGTGGCAGT | -0.13 kcal/mol
GTGGCCACGTGAGATG | 0.24 kcal/mol
CTTGGCACGTGTGGCG | 0.06 kcal/mol
ATGTTCACGTGAGTTG | 0.39 kcal/mol
GGTGCCACGTGTGTGC | -0.16 kcal/mol
TAAGGCACGTGATCGT | -0.09 kcal/mol
ATTAGCACGTGGTCAT | -0.18 kcal/mol
GTGGGCACGTGTGCCG | -0.19 kcal/mol
GGATCCACGTGTTGTA | 0.06 kcal/mol
TGAATCACGTGCAGGG | 0.18 kcal/mol
TGTAACACGTGGAATG | 0.09 kcal/mol
GGTGTCACGTGGTCAG | 0 kcal/mol
TAATGCACGTGTTCTG | -0.12 kcal/mol
ATTTGCACGTGATAGG | 0.1 kcal/mol
TCAAGCACGTGGTGTT | -0.23 kcal/mol
AAGGGCACGTGCATTG | -0.17 kcal/mol
GAATTCACGTGTGGGC | 0.42 kcal/mol
TGTAGCACGTGTCGGA | -0.15 kcal/mol
TGGGGCACGTGGGGCT | -0.22 kcal/mol
GTTGACACGTGAGGGG | 0.27 kcal/mol
GGCGTCACGTGATCGG | 0.23 kcal/mol
GGGTACACGTGGTATA | 0.06 kcal/mol
TGATGCACGTGGGACG | -0.22 kcal/mol
ATAGTCACGTGGTACT | 0 kcal/mol

Sequence | relative binding free energy
CGGTGCACGTGGGTCG | -0.16 kcal/mol
TATCTCACGTGTGTGA | 0.24 kcal/mol
AGTGGCACGTGCAGTT | -0.11 kcal/mol
GAAGGCACGTGTGTAT | 0.1 kcal/mol
AAATGCACGTGTGCGG | -0.06 kcal/mol
TGTGTCACGTGGGGTC | -0.09 kcal/mol
GGTAGCACGTGTTTTG | 0.07 kcal/mol
ATGGTCACGTGGGAGG | 0.06 kcal/mol
CTCGGCACGTGTGGTG | -0.09 kcal/mol
TGTATCACGTGAGGCT | 0.37 kcal/mol
GGGACCACGTGGGGGC | -0.06 kcal/mol
GTGTCCACGTGTTTTT | -0.02 kcal/mol
TTTCGCACGTGGTAGA | 0 kcal/mol
AAATTCACGTGTCTGG | 0.25 kcal/mol
GTGATCACGTGGGATT | 0.12 kcal/mol
GGGGCCACGTGAAGTT | 0.26 kcal/mol
CGTAACACGTGGTGTT | -0.07 kcal/mol
TATGGCACGTGTCCGT | -0.12 kcal/mol
CTACACACGTGGGGGT | -0.09 kcal/mol
GTAGCCACGTGATTGT | 0.15 kcal/mol
TATTGCACGTGGTCCG | -0.12 kcal/mol
AAAGACACGTGTGTTA | 0.12 kcal/mol
ACGTGCACGTGATGGG | 0 kcal/mol
CGGGTCACGTGATGAG | 0.24 kcal/mol
TTGGTCACGTGTTCGA | 0.08 kcal/mol
GGGTGCACGTGTTTGG | 0.04 kcal/mol

Sequence | relative binding free energy
CATTGCACGTGGTTTT | -0.14 kcal/mol
TATATCACGTGGGGGC | -0.04 kcal/mol
CGATGCACGTGGGTCT | -0.09 kcal/mol
CGAGCCACGTGGGGTA | -0.17 kcal/mol
CTTAGCACGTGGTGTA | -0.24 kcal/mol
TCTCGCACGTGTATGG | 0.05 kcal/mol
TGCGACACGTGTTTTT | 0.2 kcal/mol
GTCTGCACGTGTAGAG | 0.19 kcal/mol
AGGCGCACGTGGGTAC | -0.05 kcal/mol
TTAAACACGTGAAAGT | 0.27 kcal/mol
TTAAACACGTGAATGG | 0.32 kcal/mol
TATACCACGTGGTGTG | -0.23 kcal/mol
TCATTCACGTGTTATG | 0.25 kcal/mol
TGGGGCACGTGGCTGT | -0.16 kcal/mol
TTGTTCACGTGAGAGG | 0.55 kcal/mol
GGGTACACGTGCACGG | 0.11 kcal/mol
TTATACACGTGGATGA | 0.04 kcal/mol
CATGTCACGTGGAATT | 0.27 kcal/mol
AAATTCACGTGATTTG | 0.4 kcal/mol
AGTGTCACGTGCTGGG | 0.09 kcal/mol
TGAGACACGTGAGGTG | 0.3 kcal/mol
GGAGACACGTGACGGG | 0.13 kcal/mol
GATTGCACGTGGTTGG | 0.05 kcal/mol
GTTTGCACGTGTTTAT | 0.13 kcal/mol
GTCGGCACGTGACTGT | 0.19 kcal/mol
GTAGGCACGTGGTGTT | -0.03 kcal/mol

Sequence | relative binding free energy
TATAGCACGTGCGTGA | -0.08 kcal/mol
TTGTGCACGTGCGGCC | -0.01 kcal/mol
TGGATCACGTGTGGCA | 0.17 kcal/mol
TTGACCACGTGGGTAG | -0.15 kcal/mol
TGAAGCACGTGTGATG | 0.07 kcal/mol
AAATGCACGTGACGGT | 0.12 kcal/mol
TAGCTCACGTGGGAGT | 0.03 kcal/mol
AGTGCCACGTGAGGGC | -0.01 kcal/mol
AATTTCACGTGTCGTG | 0.17 kcal/mol
AGTGGCACGTGAAGGA | 0.16 kcal/mol
GTGGTCACGTGGGCTT | 0.05 kcal/mol
TGGTGCACGTGTCATT | -0.18 kcal/mol
TGAGTCACGTGGTTAA | 0.06 kcal/mol
ATAATCACGTGAAGTG | 0.27 kcal/mol
AATAACACGTGGTGGT | 0.01 kcal/mol
GATAGCACGTGTAGAT | 0.31 kcal/mol
CTTATCACGTGAGGTT | 0.42 kcal/mol
AATATCACGTGTGGGG | 0.14 kcal/mol
GCGTTCACGTGCGGTG | 0.16 kcal/mol
CGGGTCACGTGGATCA | 0.18 kcal/mol
GGCGTCACGTGGTCGG | 0.18 kcal/mol
GGTCACACGTGGGCGC | 0.15 kcal/mol
AGTGGCACGTGGTCAG | -0.3 kcal/mol
ATGCGCACGTGTTAAG | 0.09 kcal/mol
GTTGCCACGTGGCGTT | -0.18 kcal/mol
AGACTCACGTGTGGGT | 0.14 kcal/mol

Sequence | relative binding free energy
TAGGGCACGTGTATGG | -0.03 kcal/mol
TGTTACACGTGATATA | 0.06 kcal/mol
AAGGTCACGTGTCTTG | 0.16 kcal/mol
GGTGCCACGTGGTAGG | -0.18 kcal/mol
TCTTGCACGTGTGAGA | 0.06 kcal/mol
ATGCTCACGTGTGTAA | 0.15 kcal/mol
TGGGTCACGTGGTATT | 0.06 kcal/mol
AGAGTCACGTGCGTAT | 0.13 kcal/mol
AGAGGCACGTGGGTCT | -0.14 kcal/mol
TGTTTCACGTGGCTCG | 0.26 kcal/mol
GAGCGCACGTGAGGTT | 0.19 kcal/mol
GTATGCACGTGGAGAT | -0.02 kcal/mol
GGTGGCACGTGAAATT | 0.26 kcal/mol
GAGGACACGTGTGGGC | 0.09 kcal/mol
TAGGACACGTGAGTGA | 0.14 kcal/mol
ATAGCCACGTGGGAGT | -0.2 kcal/mol
GTGGCCACGTGCGTTG | -0.17 kcal/mol
TTTTGCACGTGACATT | 0.14 kcal/mol
TGTGGCACGTGTTCGG | -0.07 kcal/mol
TAGCTCACGTGTTCGT | 0.24 kcal/mol
TACGTCACGTGGTCAT | 0.1 kcal/mol
TTCTGCACGTGGCGGA | -0.11 kcal/mol

— the BET-seq Pho4 binding data (Le et al. 2018)
